The campaign covered roughly 48,000 compounds. About 450 (0.94%) were called active. About 19% were inconclusive and are not listed. Calls come from the whole dose curve; as a rule, active = well fitted inhibition curve with a large enough effect; inconclusive = small, poorly fitted or top-dose-only effect; inactive = no such curve, though single readings can be large or run the other way. The list shows a part of the results.
Assay: Primary qHTS for Identification of Small Molecule Inhibitors of Huntingtin Promoter Activity; note: nearly all actives have a fitted effect of over 50% in size
Conditions: HEK293 HTT promoter firefly luciferase reporter (activity 0% = vehicle and -100% = no light), 24 h; series mostly up to 57.5 µM; activity change, negative = inhibition: at the top concentration
Outline: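 Luminescence was read after Dual-Glo reagent and a 10 min room-temperature incubation. Values were normalized to vehicle (0% activity) and zero RLU (-100% activity). Reporter HEK293 cells had been exposed to compounds (up to 57.5 uM final) for 24 h.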

Activity change, negative = inhibition, inactive:
O=C(CSc1nc2ccccc2nc1Cc1ccccc1F)Nc1cccc(C(F)(F)F)c1 -12.6%
COc1ccc(-c2cc3nc(C)c(CCC(=O)N4CCN(c5ccccc5F)CC4)c(C)n3n2)c(OC)c1 -13.4%
CCC(=O)Nc1ccc(CC)cc1-c1nc2ccccc2n(CC(=O)Nc2ccccc2C)c1=O -9.03%
COc1ccc(-c2onc(C)c2C)cc1S(=O)(=O)Nc1cc(Cl)ccc1C -18.3%
CCN(CC)c1ccc(NC(=O)CCS(=O)(=O)c2ccc3c(c2)oc(=O)n3C)c(C)c1 -9.05%
CC(C)OCCCn1c(=O)c2ccccc2n2c(-c3cc(Cl)ccc3O)nnc12 -14.1%
COc1cc(C(=O)Nc2ccc(-c3nc4ccccc4o3)c(O)c2)cc(OC)c1OC -12.6%
Cc1cn2c(=O)cc(COC(=O)c3ccc(NC(=O)COc4ccc(C)c(C)c4)cc3)nc2s1 -17.2%
COc1cc2c(cc1OC)C(COc1ccc(F)cc1)N(C(=O)Cc1ccccc1)CC2 (centres undefined) -20%
CCOc1ccc(-c2cc(C(=O)NCCCOC)c3c(-c4ccc(CC)cc4)[nH]nc3n2)cc1 -12.7%
CCc1ccccc1NC(=O)CN1C(=O)c2cccnc2Sc2ccccc21 -4.87%
CCn1c(=O)c2sccc2n2c(CCC(=O)Nc3ccc(OC)cc3OC)nnc12 -11.6%
Cc1ccc(Cn2c(CNC(=O)Cc3cccc([N+](=O)[O-])c3)nc3cccnc32)cc1 -11.7%
O=c1c2ccccc2n(Cc2c(F)cccc2Cl)c(=O)n1Cc1ccccc1 -50.2%
CCn1c(=O)cc(OCC(=O)N2CCN(c3cccc(Cl)c3)CC2)c2ccccc21 -13.7%
CCCCOc1ccc(CNC(=O)C2CCCN(c3nnc(-n4c(C)ccc4C)s3)C2)cc1 (centres undefined) -29.8%
Cc1ccc2c(c1)sc1nc(=O)n(-c3ccc(Cl)c(Cl)c3)c(=O)n12 -8.9%
COc1ccc(C2=C(C)C(=NCc3ccc(OC(C)C)cc3)NS2(=O)=O)cc1 -12%
CCNc1ccc(-c2nc(-c3ccncc3)no2)cc1[N+](=O)[O-] 30.7%
CCN1CCN(C(=O)N[C@@H](C(=O)N[C@@H]2C(=O)N3[C@@H]2SC(C)(C)[C@H]3C(=O)O)c2ccccc2)C(=O)C1=O 1.35%
CCn1cc(C(=O)NCCc2ccc(Cl)cc2)c(=O)c2cc(S(=O)(=O)N3CCCCCC3)ccc21 -9.77%
Cc1nn(CCCC(=O)Nc2cccc(C(F)(F)F)c2)c(=O)c2nn(-c3ccccc3)c(C)c12 -14.2%
COc1cccc2c1C(=O)c1c(O)c3c(c(O)c1C2=O)C[C@@](O)(C(C)=O)C[C@@H]3O[C@H]1C[C@H](N)[C@H](O)[C@H](C)O1 -32.7%
COc1cc(NC(=O)Cn2cnc3sc(C)c(S(=O)(=O)N4CCC(C)CC4)c3c2=O)cc(OC)c1OC -0.624%

Source: PubChem BioAssay AID1508623 (National Center for Advancing Translational Sciences (NCATS), 2021)
